{
  "source": "the supplement of paper PMC8728848",
  "assay_in_all_cases": "glycan array binding signal (z-score within array); higher = stronger binding",
  "details_in_all_cases": "glycan notation: IUPAC condensed, linker removed",
  "key": {"[1]": {"biological_target": "Fuc(a1-2)[GalNAc(b1-3)]Gal", "outline": "(§1)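 The binding signal is a Z-score computed within each array. Data were drawn from 3228 arrays in the Consortium for Functional Glycomics database, restricted to those with a known protein sequence. Scores were averaged over arrays of the same protein sequence at different concentrations or buffers, and over linkers, and negative values can be taken as non-binding.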"}, "Fuc(a1-3)GlcNAc": {"biological_target": "Fuc(a1-3)GlcNAc", "outline": "as §1"}, "[2]": {"biological_target": "Fuc(a1-3)[Gal(b1-4)]Glc6S", "outline": "as §1"}, "[3]": {"biological_target": "Fuc(a1-3)[Gal(b1-4)]GlcNAc", "outline": "as §1"}, "[4]": {"biological_target": "Fuc(a1-3)[Gal(b1-4)]GlcNAc(b1-2)Man", "outline": "as §1"}, "[5]": {"biological_target": "Fuc(a1-3)[Gal(b1-4)]GlcNAc(b1-2)Man(a1-3)[Fuc(a1-3)[Gal(b1-4)]GlcNAc(b1-2)Man(a1-6)]Man(b1-4)GlcNAc(b1-4)GlcNAc", "outline": "as §1"}, "[6]": {"biological_target": "Fuc(a1-3)[Gal(b1-4)]GlcNAc(b1-2)Man(a1-3)[Fuc(a1-3)[Gal(b1-4)]GlcNAc(b1-2)Man(a1-6)]Man(b1-4)GlcNAc(b1-4)[Fuc(a1-6)]GlcNAc", "outline": "as §1"}, "[7]": {"biological_target": "Fuc(a1-3)[Gal(b1-4)]GlcNAc(b1-3)Gal(b1-3)[Fuc(a1-4)]GlcNAc", "outline": "as §1"}, "[8]": {"biological_target": "Fuc(a1-3)[Gal(b1-4)]GlcNAc(b1-3)Gal(b1-4)[Fuc(a1-3)]GlcNAc", "outline": "as §1"}, "[9]": {"biological_target": "Fuc(a1-3)[Gal(b1-4)]GlcNAc(b1-3)Gal(b1-4)[Fuc(a1-3)]GlcNAc(b1-3)Gal(b1-4)[Fuc(a1-3)]GlcNAc", "outline": "as §1"}, "[10]": {"biological_target": "Fuc(a1-3)[Gal(b1-4)]GlcNAc(b1-3)GalNAc", "outline": "as §1"}, "[11]": {"biological_target": "Fuc(a1-3)[Gal(b1-4)]GlcNAc(b1-6)GalNAc", "outline": "as §1"}, "[12]": {"biological_target": "Fuc(a1-3)[Gal(b1-4)]GlcNAc(b1-6)[Gal(b1-3)GlcNAc(b1-3)]Gal(b1-4)Glc", "outline": "as §1"}, "[13]": {"biological_target": "Fuc(a1-3)[Gal(b1-4)]GlcNAc6S", "outline": "as §1"}, "[14]": {"biological_target": "Fuc(a1-3)[Gal3S(b1-4)]Glc", "outline": "as §1"}, "[15]": {"biological_target": "Fuc(a1-3)[Gal3S(b1-4)]GlcNAc", "outline": "as §1"}, "[16]": {"biological_target": "Fuc(a1-3)[Gal3S(b1-4)]GlcNAc6S", "outline": "as §1"}, "[17]": {"biological_target": "Fuc(a1-3)[GalNAc(b1-4)]GlcNAc", "outline": "as §1"}, "[18]": {"biological_target": "Fuc(a1-3)[GalNAc(b1-4)]GlcNAc6S", "outline": "as §1"}, "Fuc(a1-4)GlcNAc": {"biological_target": "Fuc(a1-4)GlcNAc", "outline": "as §1"}, "Fuc(b1-3)GlcNAc": {"biological_target": "Fuc(b1-3)GlcNAc", "outline": "as §1"}, "Gal(a1-2)Gal": {"biological_target": "Gal(a1-2)Gal", "outline": "as §1"}, "Gal(a1-3)Gal": {"biological_target": "Gal(a1-3)Gal", "outline": "as §1"}, "Gal(a1-3)Gal(b1-3)GlcNAc": {"biological_target": "Gal(a1-3)Gal(b1-3)GlcNAc", "outline": "as §1"}, "[19]": {"biological_target": "Gal(a1-3)Gal(b1-3)GlcNAc(b1-2)Man", "outline": "as §1"}, "[20]": {"biological_target": "Gal(a1-3)Gal(b1-3)GlcNAc(b1-2)Man(a1-3)[Gal(a1-3)Gal(b1-3)GlcNAc(b1-2)Man(a1-6)]Man(b1-4)GlcNAc(b1-4)GlcNAc", "outline": "as §1"}, "[21]": {"biological_target": "Gal(a1-3)Gal(b1-3)GlcNAc(b1-3)GalNAc", "outline": "as §1"}, "[22]": {"biological_target": "Gal(a1-3)Gal(b1-3)GlcNAc(b1-6)GalNAc", "outline": "as §1"}, "[23]": {"biological_target": "Gal(a1-3)Gal(b1-3)[Fuc(a1-4)]GlcNAc(b1-2)Man(a1-3)[Gal(a1-3)Gal(b1-3)[Fuc(a1-4)]GlcNAc(b1-2)Man(a1-6)]Man(b1-4)GlcNAc(b1-4)GlcNAc", "outline": "as §1"}, "Gal(a1-3)Gal(b1-4)Glc": {"biological_target": "Gal(a1-3)Gal(b1-4)Glc", "outline": "as §1"}, "Gal(a1-3)Gal(b1-4)GlcNAc": {"biological_target": "Gal(a1-3)Gal(b1-4)GlcNAc", "outline": "as §1"}, "[24]": {"biological_target": "Gal(a1-3)Gal(b1-4)GlcNAc(b1-2)Man", "outline": "as §1"}, "[25]": {"biological_target": "Gal(a1-3)Gal(b1-4)GlcNAc(b1-2)Man(a1-3)[Gal(a1-3)Gal(b1-4)GlcNAc(b1-2)Man(a1-6)]Man(b1-4)GlcNAc(b1-4)GlcNAc", "outline": "as §1"}, "[26]": {"biological_target": "Gal(a1-3)Gal(b1-4)GlcNAc(b1-3)GalNAc", "outline": "as §1"}, "[27]": {"biological_target": "Gal(a1-3)Gal(b1-4)GlcNAc(b1-6)GalNAc", "outline": "as §1"}, "[28]": {"biological_target": "Gal(a1-3)Gal(b1-4)[Fuc(a1-3)]GlcNAc", "outline": "as §1"}, "[29]": {"biological_target": "Gal(a1-3)Gal(b1-4)[Fuc(a1-3)]GlcNAc(b1-2)Man(a1-3)[Gal(a1-3)Gal(b1-4)[Fuc(a1-3)]GlcNAc(b1-2)Man(a1-6)]Man(b1-4)GlcNAc(b1-4)GlcNAc", "outline": "as §1"}, "Gal(a1-3)GalNAc": {"biological_target": "Gal(a1-3)GalNAc", "outline": "as §1"}, "[30]": {"biological_target": "Gal(a1-3)[Gal(a1-4)]Gal(b1-4)GlcNAc", "outline": "as §1"}, "[31]": {"biological_target": "Gal(a1-4)Gal(b1-3)GlcNAc(b1-2)Man(a1-3)[Gal(a1-4)Gal(b1-3)GlcNAc(b1-2)Man(a1-6)]Man(b1-4)GlcNAc(b1-4)GlcNAc", "outline": "as §1"}, "Gal(a1-4)Gal(b1-4)Glc": {"biological_target": "Gal(a1-4)Gal(b1-4)Glc", "outline": "as §1"}, "Gal(a1-4)Gal(b1-4)GlcNAc": {"biological_target": "Gal(a1-4)Gal(b1-4)GlcNAc", "outline": "as §1"}, "[32]": {"biological_target": "Gal(a1-4)Gal(b1-4)GlcNAc(b1-2)Man(a1-3)[Gal(a1-4)Gal(b1-4)GlcNAc(b1-2)Man(a1-6)]Man(b1-4)GlcNAc(b1-4)GlcNAc", "outline": "as §1"}, "[33]": {"biological_target": "Gal(a1-4)Gal(b1-4)GlcNAc(b1-3)Gal(b1-4)Glc", "outline": "as §1"}, "Gal(a1-4)GlcNAc": {"biological_target": "Gal(a1-4)GlcNAc", "outline": "as §1"}},
  "note": "Some of the results follow.",
  "data": [
    {"binder": "LSL-150 (Laetiporus sulphureus), Q7Z8V1 (protein) MTDIYIPPEGLYFRLLGFASRQVIFARNSPSPDVGLSPVNDQATDQYFSLIYGTGEHAGLYAIKSKATGKVLFSRRPAEPYVGQIDGDGRYPDNWFKIEPGKTYLSKYFRLVQPSTGTALVSRTHLQPYFWNHPQTEVFDDQYFTFLFEDHHHHHH", "values": [
      {"measurement": "glycan array binding signal (z-score)", "setting": "[1]", "result": -0.214},
      {"measurement": "glycan array binding signal (z-score)", "setting": "Fuc(a1-3)GlcNAc", "result": -0.205},
      {"measurement": "glycan array binding signal (z-score)", "setting": "[2]", "result": -0.203},
      {"measurement": "glycan array binding signal (z-score)", "setting": "[3]", "result": -0.203},
      {"measurement": "glycan array binding signal (z-score)", "setting": "[4]", "result": -0.205},
      {"measurement": "glycan array binding signal (z-score)", "setting": "[5]", "result": -0.207},
      {"measurement": "glycan array binding signal (z-score)", "setting": "[6]", "result": -0.197},
      {"measurement": "glycan array binding signal (z-score)", "setting": "[7]", "result": -0.211},
      {"measurement": "glycan array binding signal (z-score)", "setting": "[8]", "result": -0.199},
      {"measurement": "glycan array binding signal (z-score)", "setting": "[9]", "result": -0.21},
      {"measurement": "glycan array binding signal (z-score)", "setting": "[10]", "result": -0.208},
      {"measurement": "glycan array binding signal (z-score)", "setting": "[11]", "result": -0.209},
      {"measurement": "glycan array binding signal (z-score)", "setting": "[12]", "result": -0.204},
      {"measurement": "glycan array binding signal (z-score)", "setting": "[13]", "result": -0.205},
      {"measurement": "glycan array binding signal (z-score)", "setting": "[14]", "result": -0.209},
      {"measurement": "glycan array binding signal (z-score)", "setting": "[15]", "result": -0.187},
      {"measurement": "glycan array binding signal (z-score)", "setting": "[16]", "result": -0.201},
      {"measurement": "glycan array binding signal (z-score)", "setting": "[17]", "result": -0.173},
      {"measurement": "glycan array binding signal (z-score)", "setting": "[18]", "result": -0.205},
      {"measurement": "glycan array binding signal (z-score)", "setting": "Fuc(a1-4)GlcNAc", "result": -0.206},
      {"measurement": "glycan array binding signal (z-score)", "setting": "Fuc(b1-3)GlcNAc", "result": -0.203},
      {"measurement": "glycan array binding signal (z-score)", "setting": "Gal(a1-2)Gal", "result": -0.196},
      {"measurement": "glycan array binding signal (z-score)", "setting": "Gal(a1-3)Gal", "result": -0.209},
      {"measurement": "glycan array binding signal (z-score)", "setting": "Gal(a1-3)Gal(b1-3)GlcNAc", "result": -0.198},
      {"measurement": "glycan array binding signal (z-score)", "setting": "[19]", "result": -0.194},
      {"measurement": "glycan array binding signal (z-score)", "setting": "[20]", "result": -0.204},
      {"measurement": "glycan array binding signal (z-score)", "setting": "[21]", "result": -0.21},
      {"measurement": "glycan array binding signal (z-score)", "setting": "[22]", "result": -0.203},
      {"measurement": "glycan array binding signal (z-score)", "setting": "[23]", "result": -0.203},
      {"measurement": "glycan array binding signal (z-score)", "setting": "Gal(a1-3)Gal(b1-4)Glc", "result": -0.203},
      {"measurement": "glycan array binding signal (z-score)", "setting": "Gal(a1-3)Gal(b1-4)GlcNAc", "result": -0.212},
      {"measurement": "glycan array binding signal (z-score)", "setting": "[24]", "result": -0.208},
      {"measurement": "glycan array binding signal (z-score)", "setting": "[25]", "result": -0.199},
      {"measurement": "glycan array binding signal (z-score)", "setting": "[26]", "result": -0.21},
      {"measurement": "glycan array binding signal (z-score)", "setting": "[27]", "result": -0.2},
      {"measurement": "glycan array binding signal (z-score)", "setting": "[28]", "result": -0.213},
      {"measurement": "glycan array binding signal (z-score)", "setting": "[29]", "result": -0.199},
      {"measurement": "glycan array binding signal (z-score)", "setting": "Gal(a1-3)GalNAc", "result": -0.205},
      {"measurement": "glycan array binding signal (z-score)", "setting": "[30]", "result": -0.186},
      {"measurement": "glycan array binding signal (z-score)", "setting": "[31]", "result": -0.204},
      {"measurement": "glycan array binding signal (z-score)", "setting": "Gal(a1-4)Gal(b1-4)Glc", "result": -0.198},
      {"measurement": "glycan array binding signal (z-score)", "setting": "Gal(a1-4)Gal(b1-4)GlcNAc", "result": -0.202},
      {"measurement": "glycan array binding signal (z-score)", "setting": "[32]", "result": -0.202},
      {"measurement": "glycan array binding signal (z-score)", "setting": "[33]", "result": -0.2},
      {"measurement": "glycan array binding signal (z-score)", "setting": "Gal(a1-4)GlcNAc", "result": -0.214}
    ]}
  ]
}
